# Assay results reported in PubChem BioAssay AID485294 (National Center for Advancing Translational Sciences (NCATS), 2010).
# Hit rate of the full screen: of about 370,000 compounds, about 150 (0.041%) were called active. The inconclusive results got no clear call from the source; some entries with a clear call stand among them for comparison. Calls follow the shape of the dose curve; as a rule, active = well fitted inhibition curve with a large enough effect; inconclusive = small, poorly fitted or top-dose-only effect; inactive = flat fitted curve, though single readings scatter. Potencies of inconclusive entries are left out as doubtful fits.
# Target: Beta-lactamase (Escherichia coli (strain K12)) (UniProt P00811)
# Sequence of UniProt P00811 (P00811 whole entry, looked up): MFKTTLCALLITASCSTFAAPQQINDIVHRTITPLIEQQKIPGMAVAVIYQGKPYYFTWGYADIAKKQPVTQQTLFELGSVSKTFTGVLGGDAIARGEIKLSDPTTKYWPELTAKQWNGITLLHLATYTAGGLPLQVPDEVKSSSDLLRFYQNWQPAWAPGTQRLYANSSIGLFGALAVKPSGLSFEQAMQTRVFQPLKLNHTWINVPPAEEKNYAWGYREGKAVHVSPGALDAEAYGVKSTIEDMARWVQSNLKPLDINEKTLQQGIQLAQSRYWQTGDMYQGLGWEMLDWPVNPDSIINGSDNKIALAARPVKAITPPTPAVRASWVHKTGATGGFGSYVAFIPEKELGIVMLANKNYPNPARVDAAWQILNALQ
# Assay: qHTS Inhibitors of AmpC Beta-Lactamase (assay with detergent); also: nearly all actives have a fitted effect of over 25% in size
# Conditions: AmpC hydrolysis of nitrocefin, absorbance 480 nm, 0.01% Triton; series mostly up to 114 µM
# Summary of the method: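 AmpC (5.3 nM in the dispensed reagent) in 20 mM phosphate pH 7.0 with 0.01% (detergent screen) or 0.0001% Triton X-100 was preincubated with compounds for 15 min at room temperature. Nitrocefin was then added from an 800 uM solution, and hydrolysis was followed at 480 nm.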
# Potency is read from the fitted curve at half-maximal effect; tags tell the direction and shape of the fitted curve.
row,Compound,Potency
1,CCOC(=O)c1ccccc1NC(=O)C1CCN(c2ncnc3sc(C)c(C)c23)CC1,"inconclusive [inhibitor, full curve, poor fit]"
2,O=C1N=NC(=O)N1c1ccccc1,"inconclusive [inhibitor, single point]"
3,O=C1NC(c2cccc(Br)c2)=N/C1=C\c1ccco1,inactive
4,CCOC(=O)C(Cc1ccccc1)C(=O)Nc1cccc2ccccc12 (stereo not drawn),"inconclusive [inhibitor, single point]"
5,O=C(NN1C(=O)c2ccccc2NC1c1ccccn1)c1ccccc1 (stereo not drawn),inactive
6,CC(C)Sc1nc2ccccc2n1CC(=O)NCc1ccc2c(c1)OCO2,"inconclusive [inhibitor, full curve, poor fit]"
7,COc1ccc2[nH]c3c(=O)n4c(nc3c2c1)SCC4,"inconclusive [inhibitor, full curve, poor fit]"
8,O=C(CN1C(=O)NC2(CCCc3ccccc32)C1=O)NCc1ccco1 (stereo not drawn),"inconclusive [inhibitor, single point]"
9,Cn1c(C(=O)Nc2ccc3c(c2)OCCO3)cc2sccc21,inactive
10,CC(=O)N1CCCc2cc(S(=O)(=O)N3CCC(C(=O)NCc4cccc(C)c4)CC3)ccc21,inactive
11,O=C(N/N=C/c1ccc([N+](=O)[O-])cc1)c1ccc2nc[nH]c2c1,inactive
12,Cc1[nH]c2ccc3ccccc3c2c(=O)c1C/C=C/Cl,"inconclusive [inhibitor, full curve, poor fit]"
13,CCCCn1c2ccc(F)cc2c2nnc(NN)nc21,inactive
14,O=C(NCCCN1CCOCC1)c1cc2c(=O)[nH]c3ccccc3c2s1,inactive
15,O=c1[nH]c2cc3c(cc2cc1CN(Cc1cccs1)Cc1nnnn1Cc1ccco1)OCCO3,"inconclusive [inhibitor, full curve, poor fit]"
16,CC(C)CCn1c(CN2CCN(C(=O)c3ccco3)CC2)nc2c1c(=O)n(C)c(=O)n2C,"inconclusive [inhibitor, partial curve, poor fit]"
17,N#Cc1ccc(CN2CCN(C(=O)CN3C(=O)NC4(CCCC4)C3=O)CC2)cc1,inactive
18,CCN(CC)P(=O)(Nc1cccc(C(F)(F)F)c1)c1ccc(N(C)C)cc1NC(=O)c1ccco1 (stereo not drawn),inactive
19,Cc1cc(Cl)c(OCCOCCN2CCC(C)CC2)c(Br)c1,inactive
20,Cc1ccc(Nc2nn3c(=O)c4cc5c(cc4nc3s2)OCO5)cc1Cl,"inconclusive [inhibitor, single point]"
21,O=C(/C=C/c1ccccc1)NCCS(=O)(=O)N1CCN(c2ccccc2)CC1,"inconclusive [inhibitor, partial curve, poor fit]"
22,Cc1cccc2c1cnn2C(=O)CCC(=O)NC1CCCCC1,"inconclusive [inhibitor, full curve, poor fit]"
23,NNc1nc2sc3c(c2c(=O)n1Cc1ccccc1)CCC3,inactive
24,COc1ccc(-c2cc(C(=O)Nc3c(C)nn(Cc4ccc(C)cc4)c3C)no2)cc1OC,inactive
25,CCc1ccc(NC(=S)N2CCCC(C(F)(F)F)C2)cc1 (stereo not drawn),inactive

row,Compound,Potency
1,CCOC(=O)CNC(=O)CSc1ncnc2c1cnn2-c1ccc(Cl)cc1,"inconclusive [inhibitor, full curve, poor fit]"
2,CN(C)CCNC(=S)Nc1ccc(F)c(F)c1F,"inconclusive [inhibitor, full curve, poor fit]"
3,O=C1CC(C(=O)N2CCOCC2)C2(CCCC2)O1 (stereo not drawn),inactive
4,CC(=O)c1c(C)[nH]c(C(=O)N2CCC3(CC2)OCCO3)c1C,"inconclusive [inhibitor, single point]"
5,CC(=O)C1=C(O)C(=O)N(c2ccccn2)C1c1ccc(C)cc1 (stereo not drawn),inactive
6,CCCNC(=O)NC(=O)CN1C(=O)NC(C)(c2ccc3ccccc3c2)C1=O (stereo not drawn),"inconclusive [inhibitor, full curve, poor fit]"
7,CCCC(=O)NC(NC(=S)Nc1ccc(S(N)(=O)=O)cc1)C(Cl)(Cl)Cl (stereo not drawn),"inconclusive [inhibitor, full curve, poor fit]"
8,CC(C)CCC(=O)N1CCOC1=O,"inconclusive [inhibitor, full curve]"
9,Cc1ccc2c(c1)N=C(c1ccccc1)CC(C(Cl)Cl)=N2,inactive
10,CCOc1ccc(S(=O)(=O)N2CCC(C(=O)NCCN3CCOCC3)CC2)cc1C,"inconclusive [inhibitor, full curve, poor fit]"
11,CC1=C(C#N)C(c2cn(-c3ccccc3)nc2-c2cccs2)C(C#N)=C(C)N1,"inconclusive [inhibitor, full curve, poor fit]"
12,Cc1ccc(C(C(=O)NC2CCCC2)N2CCCC(C)C2)cc1 (stereo not drawn),"inconclusive [inhibitor, full curve, poor fit]"
13,CCOC(=O)C1C(=O)OC2(CCCC2)C1C(=O)OCC (stereo not drawn),"inconclusive [inhibitor, full curve, poor fit]"
14,COc1cc2c(cc1OC)CN(C(=O)C(C)(C)C)CC2,"inconclusive [inhibitor, full curve]"
15,Cc1ccc(-c2nc3ccccc3o2)cc1NC(=S)NC(=O)/C=C/c1ccco1,"inconclusive [inhibitor, full curve]"
16,CSc1cccc(NC(=O)C2C3C=CC4(O3)C2C(=O)N(CCCN2CCOCC2)C4C(=O)NC2CCCCC2)c1 (stereo not drawn),inactive
17,COC(=O)c1ccc(CN2CCCC(CO)(Cc3ccc(F)cc3F)C2)cc1 (stereo not drawn),"inconclusive [inhibitor, full curve, poor fit]"
18,CC1CCN(C(=O)C2CCN(S(=O)(=O)c3cccc4nsnc34)CC2)CC1,"inconclusive [inhibitor, single point]"
19,Cc1c(Cl)cccc1NC(=O)CNC(=O)c1ccccc1F,"inconclusive [inhibitor, partial curve, poor fit]"
20,O=S(=O)(c1ccc(Oc2ncnc3scc(-c4ccccc4)c23)cc1)N1CCOCC1,"inconclusive [inhibitor, full curve, poor fit]"
21,CCCCCCCCCC(=O)OCC(O)CO (stereo not drawn),"inconclusive [inhibitor, full curve, poor fit]"
22,CC(C)(Oc1ccc(-c2ccco2)cc1)C(=O)O,inactive
23,O=C(O)c1cc(-c2ccc3ccccc3c2)nc2ccc(F)cc12,inactive
24,Cc1ccc(NC(=O)C2CCCN2C(=O)Oc2ccccc2)cc1 (stereo not drawn),"inconclusive [inhibitor, single point]"
25,COc1ccc(-c2ccccc2)cc1NC(=O)c1cccs1,"inconclusive [inhibitor, full curve, poor fit]"

row,Compound,Potency
1,NC(=O)N=Nc1c(O)n(Cc2ccccc2)c2ccc(Br)cc12,"inconclusive [inhibitor, partial curve, poor fit]"
2,O=C(CCc1nnc(CCCCc2ccccc2)o1)N(CCO)Cc1ccccc1,inactive
3,C/C(N)=C(/C#N)C(=O)CSc1nc2ccccc2[nH]1,inactive
4,COc1cccc(NC(=O)CC(=O)c2ccc([N+](=O)[O-])cc2)c1,inactive
5,N#CCn1cc(/C=N/NC(=O)c2cc3c(ccc4ccccc43)o2)c2ccccc21,inactive
6,CCc1ccc(NC(=O)CCS(=O)(=O)c2ccc3c(c2)n(C)c(=O)c(=O)n3C)cc1,inactive
7,Clc1ccc(CCC(Cn2ccnc2)Sc2c(Cl)cccc2Cl)cc1 (stereo not drawn),"inconclusive [inhibitor, full curve]"
8,COc1ccccc1OCCn1c(=O)sc2ccccc21,inactive
9,CCOc1ccc(C(=O)Nc2cccc(C(=O)O)c2)cc1Cl,"inconclusive [inhibitor, partial curve, poor fit]"
10,COc1ccc(C2=Nn3c(nnc3-c3ccccc3OC)SC2)cc1OC,"inconclusive [inhibitor, full curve, poor fit]"
11,Cc1cnc(C(=O)OCc2csc(CC(=O)Nc3ccccc3C)n2)cn1,"inconclusive [inhibitor, full curve, poor fit]"
12,Cc1nc(SCC(=O)Nc2ccccc2Cl)oc1C,"inconclusive [inhibitor, single point]"
13,CC(C)(C)n1nc2c(c1NC(=O)c1cccc(C(F)(F)F)c1)CS(=O)C2 (stereo not drawn),"inconclusive [inhibitor, full curve]"
14,Cc1cccc(OCc2nnc(SCC(=O)Nc3cccc(C(=O)N4CCOCC4)c3)n2C)c1C,"inconclusive [inhibitor, partial curve, poor fit]"
15,O=C1CCCC/C1=C\Nc1ccc(C(=O)O)c(O)c1,inactive
16,Cc1ccc(CNS(=O)(=O)c2cc3c(cc2C)NC(=O)CO3)cc1,inactive
17,COc1ccc(COC(=O)C2=C(C)NC(=O)NC2c2ccc(O)c(OC)c2)cc1 (stereo not drawn),"inconclusive [inhibitor, full curve]"
18,Cc1ccc(OCC(=O)N(Cc2ccc(C)o2)C2CCS(=O)(=O)C2)cc1 (stereo not drawn),inactive
19,CCN1C(=O)/C(=C\N2CCN(c3cccc(Cl)c3)CC2)SC1=S,"inconclusive [inhibitor, partial curve, poor fit]"
20,COc1ccccc1C(=O)N(Cc1ccco1)C1CCS(=O)(=O)C1 (stereo not drawn),inactive
21,CC1(C)CC(=O)C=C(Nc2ccccc2N)C1,inactive
22,CC(OC(=O)CNC(=O)c1cccs1)C(=O)Nc1ccc(S(N)(=O)=O)cc1 (stereo not drawn),"inconclusive [inhibitor, full curve, poor fit]"
23,Cc1cccc(Cn2cc3c(=O)n(CC(=O)Nc4ccc(C)c(F)c4)nc-3c3cc(F)ccc32)c1,inactive
